# Experimental data: PMC4336329 (PLoS ONE, 2015)
# The campaign covered roughly 310,000 compounds. About 14,000 (4.5%) showed an effect of 50% or more. The effect is printed as a negative number. The list shows a part of the results.
# Molecular target: human ether-à-go-go-related gene (hERG) potassium channel (human, UniProt Q12809)
# Assay: primary screen, population patch clamp on CHO cells stably expressing hERG
# 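Further: peak tail current of the secondary pulse compared with the same well before compound.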
# Chain of human ether-à-go-go-related gene (hERG) potassium channel (Q12809 whole entry, looked up): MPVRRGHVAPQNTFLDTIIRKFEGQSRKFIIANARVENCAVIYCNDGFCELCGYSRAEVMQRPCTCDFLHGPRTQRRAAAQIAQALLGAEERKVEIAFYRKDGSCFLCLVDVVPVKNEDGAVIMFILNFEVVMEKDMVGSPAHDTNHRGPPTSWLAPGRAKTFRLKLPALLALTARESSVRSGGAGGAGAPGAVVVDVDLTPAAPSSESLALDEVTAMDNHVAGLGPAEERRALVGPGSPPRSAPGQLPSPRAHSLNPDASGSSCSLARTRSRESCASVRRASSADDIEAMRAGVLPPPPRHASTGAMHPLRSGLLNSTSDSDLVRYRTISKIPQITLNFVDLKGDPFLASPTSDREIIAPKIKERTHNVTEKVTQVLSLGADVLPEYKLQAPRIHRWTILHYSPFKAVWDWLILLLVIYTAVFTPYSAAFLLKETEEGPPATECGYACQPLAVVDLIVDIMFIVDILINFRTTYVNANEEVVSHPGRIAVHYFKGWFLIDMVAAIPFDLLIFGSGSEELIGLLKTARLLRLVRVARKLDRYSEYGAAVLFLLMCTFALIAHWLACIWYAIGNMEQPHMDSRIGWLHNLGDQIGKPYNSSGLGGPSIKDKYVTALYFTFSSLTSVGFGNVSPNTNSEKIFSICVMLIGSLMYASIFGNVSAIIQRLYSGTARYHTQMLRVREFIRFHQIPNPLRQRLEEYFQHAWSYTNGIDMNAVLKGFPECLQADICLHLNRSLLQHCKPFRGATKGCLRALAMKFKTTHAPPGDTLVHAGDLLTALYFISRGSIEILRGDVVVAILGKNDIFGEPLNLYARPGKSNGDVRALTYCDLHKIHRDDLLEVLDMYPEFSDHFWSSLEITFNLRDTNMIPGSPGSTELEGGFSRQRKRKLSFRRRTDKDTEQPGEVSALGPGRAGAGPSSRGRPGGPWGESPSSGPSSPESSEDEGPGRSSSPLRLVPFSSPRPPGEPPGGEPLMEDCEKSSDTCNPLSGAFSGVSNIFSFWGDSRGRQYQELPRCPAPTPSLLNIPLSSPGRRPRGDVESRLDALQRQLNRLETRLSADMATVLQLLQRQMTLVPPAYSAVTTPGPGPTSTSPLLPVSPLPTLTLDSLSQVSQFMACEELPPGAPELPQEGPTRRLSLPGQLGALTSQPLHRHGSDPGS
row,SMILES,"hERG current change (%, negative = inhibition) at 10uM [%]"
1,O=C(c1ccc2c(c1)OCO2)N1CCc2ccccc21,-2.34
2,CCCn1c(C)cc(C(=O)CN2C(=O)c3ccccc3C2=O)c1C,-14.8
3,O=C(COc1ccc(Cl)cc1)Nc1nnc(-c2ccco2)o1,0.669
4,COc1cc(NS(=O)(=O)c2ccc(C)cc2)ccc1-n1cnnn1,-12.4
5,O=C(O)c1ccc(Cl)c(NCc2cccs2)c1,22.5
6,O=C1NCCCN1Cc1ccc(F)cc1,-8.4
7,O=C(c1ccccn1)N1CCCC(N2CCN(c3ccc(F)cc3)CC2)C1 (centres unmarked),-37.2
8,CC(=O)NC(=S)Nc1cccc(S(=O)(=O)NC2=NCCC2)c1,-4.85
9,N#Cc1cc2c(nc1SCc1ccccc1)CCCC2,30
10,CC1(C)CC(=O)C2=C(C1)N(c1ncn[nH]1)C(N)=C(C#N)C2c1ccccc1 (centres unmarked),1.19
11,Cc1ccc(C(=O)N/C(=C\c2ccc(Cl)cc2)C(=O)NCC2CCCO2)cc1 (centres unmarked),-49
12,O=C(N/N=C/c1ccc([N+](=O)[O-])s1)c1ccccc1,11.4
13,NC(=O)c1ccc(NC(=O)COc2ccc([N+](=O)[O-])cc2Cl)cc1,-13.9
14,O=C1c2ccccc2NC(c2ccccc2Cl)N1N=C1CCCCCC1 (centres unmarked),-12.3
15,Cc1cc(C)nc(SCC(=O)N/N=C/c2cccn2-c2ccc(O)cc2)n1,2.63
16,O=C(Nc1cccc([N+](=O)[O-])c1)N1CCCc2ccccc21,-13.7
17,COc1ccc(Cl)cc1Nc1nc(C)nc2c1oc1ccccc12.Cl,20.5
18,CCCC1c2ccc(C)n2CCN1C(=O)Nc1ccccc1Cl (centres unmarked),-3.91
19,O=C(/C=C/c1ccco1)NC(=S)N1CCCCC1,-4.86
20,CN(C)c1cccc(NC(=O)Cc2ccc(F)cc2)c1,16.8
21,COc1ccc(-c2cc(C(F)(F)F)n3nc(C(=O)NCCCN4CCOCC4)cc3n2)cc1,-18.5
22,Cc1ccc(NC2=CC(=O)CC(C)(C)C2)cc1C,2.51
23,O=C(NCc1cccnc1)Nc1cccc([N+](=O)[O-])c1,-1.83

row,SMILES,"hERG current change (%, negative = inhibition) at 10uM [%]"
1,Cc1cccc(NC(=O)CNc2cc(C)ccc2C)c1,-20.4
2,CCC(C)NCCCCOc1cc(C)cc(C(C)C)c1 (centres unmarked),-54.9
3,O=C(Nc1cccc(Cl)c1)c1ccc(NCCCN2CCOCC2)c([N+](=O)[O-])c1,-37.9
4,COc1cc(C(=O)NCCOc2ccccc2C)c(Br)c(OC)c1OC,-17.8
5,CCN1C(=O)[C@H]2[C@@H](c3ccc(C)cc3)N3C(=O)N(c4ccc(C(F)(F)F)cc4)C(=O)[C@@]3(CC(C)C)[C@H]2C1=O,14.6
6,CC(c1ccon1)N(C)C(=O)CCc1nnc(Cc2ccc(-c3ccccc3)cc2)o1 (centres unmarked),-21.7
7,CC(C)(C)NC(=S)Nc1cccc(C(F)(F)F)c1,15.2
8,O=C(COC(=O)c1cnccn1)NCc1ccc(Cl)cc1,-3.54
9,C=CCOc1ccc(/C(O)=C2/C(=O)C(=O)N(CCCN3CCOCC3)C2c2ccccc2)cc1 (centres unmarked),12.5
10,Cc1cc(C)n(CCNC(=O)C2CCC(=O)N(Cc3ccc(Cl)cc3)C2)n1 (centres unmarked),15.2
11,CC(C)COc1ccc2[nH]c3c(c2c1)CCCC3=O,10.5
12,Cc1ccccc1N1C(=O)C2C3CCC(O3)C2C1=O (centres unmarked),20.2
13,COC(=O)c1ccc2ccn(CC(=O)NC(C)C)c2c1,8.62
14,O=C1NC[C@@H](Cc2cccc3ccccc23)N(CC2(c3ccccc3)CC2)C1=O,-10
15,O=C(Nc1ccc2nc(-c3ccc4nc[nH]c4c3)[nH]c2c1)c1cccs1,17.1
16,CCCc1[nH][nH]c(=O)c1C(c1ccc(Br)cc1)C(C#N)C#N (centres unmarked),6.7
17,COc1cc(OC)c(C(=O)NC2CC(C)(C)NC(C)(C)C2)cc1OC,12
18,FC(F)(F)c1cccc(NC(=S)Nc2ccc(Cl)cc2Cl)c1,20.7
19,Cc1oc(C(C)(C)C)cc1C(N)=O,12.7
20,Nc1nnc(SCc2cccnc2)s1,-3.41
21,O=C1CC(c2ccc(Cl)cc2)CC(O)=C1C=NCc1ccc(Cl)c(Cl)c1 (centres unmarked),6.96
22,COc1cccc(C(=O)N2CCN(c3ccc(N4CCOCC4)nn3)CC2)c1,-14.8
23,N#Cc1nc(Cc2cccc3ccccc23)oc1NCc1ccc2c(c1)OCO2,-6.58

row,SMILES,"hERG current change (%, negative = inhibition) at 10uM [%]"
1,CCOc1ccc(NS(=O)(=O)c2ccc3ncsc3c2)cc1,2.42
2,CCc1c(C)c2ccc(OCC(=O)OC(C)C)c(C)c2oc1=O,-4.84
3,Cc1ccc(N/N=C2\CC(=O)c3ccccc32)cc1Cl,23.7
4,CSc1ccc(-c2nc(CSCC(=O)NCCCN3CCCC3=O)c(C)o2)cc1,-14.4
5,CC1=C(C)CC(C(=O)NC(C)CCc2ccccc2)C(C(=O)O)C1 (centres unmarked),11
6,Cc1ccc2oc(C(=O)N3CCN(Cc4nccn4C)CC3)c(C)c2c1,-41.3
7,COCCOC(=O)c1c(C)oc2ccc(OCc3cc(C(=O)OC)oc3C)cc12,-0.544
8,O=C(COC(=O)c1cc(Br)ccc1O)NNC(=O)c1ccc([N+](=O)[O-])cc1,-6.34
9,COc1ccc(OC)c(NC2=NC3(CCCCC3)N=C(N)N2)c1,10.4
10,CNC(=O)c1cc(C(=O)c2ccc(C(F)(F)F)cc2F)c[nH]1,4.82
11,CCCCCCCCNC(=O)c1cccnc1SCC(=O)Nc1ccc(OC)cc1OC,5.99
12,O=C(O)CCCCCNS(=O)(=O)c1cccc2nsnc12,-1.24
13,O=C(NCCCN1CCN(c2ccccc2F)CC1)Nc1ccc(F)cc1,-66.3
14,COc1ccc(CC(=O)NCC2CCCN(Cc3cc(OC)cc(OC)c3)C2)cc1 (centres unmarked),-21
15,Cc1nn(-c2nc3ccccc3s2)c(C)c1Oc1ccccc1O,18.3
16,COc1ccc(C2C3C(=O)N(N(C)c4ncc(C(F)(F)F)cc4Cl)C(=O)C3ON2C)cc1 (centres unmarked),14.8
17,Cc1cccc(NCc2ccc(Br)cc2)n1,-5.75
18,COC(=O)[C@@H]1C[C@@H]2CC[C@@H](O)C[C@@H]2N1Cc1ccc(N2CCN(C)CC2)cc1,9.87
19,O=C(Nc1ccccc1-c1ccccc1)c1cnccn1,-15.3
20,COc1ccc(C2CC(C(F)(F)F)n3nc(C(=O)O)cc3N2)cc1 (centres unmarked),22.4
21,COc1ccc(/C=C/C(=O)OCC(=O)c2c[nH]c3ccccc23)cc1,11.1
22,OCCOCCOc1ccccc1OCCOCCO,16
23,O=C1NC(c2ccccc2)=C(c2ccccc2)C1=O,16.3

row,SMILES,"hERG current change (%, negative = inhibition) at 10uM [%]"
1,COc1ccc(OC)c(CC(=O)N(C)C2CCCN(Cc3ccccc3F)C2)c1 (centres unmarked),2.37
2,Cn1cc(CCNCc2cn[nH]c2-c2ccc(-c3ccccc3)cc2)cn1,-64.8
3,Cc1ccc(C(=O)O/N=C(\N)c2ccc(C(F)(F)F)cn2)cc1,12.7
4,CCOC(=O)CSCc1c(C#N)c2ccccc2n1C,-11.4
5,COc1ccc(OC)c(-c2csc(NC(=O)Cc3ccccc3OC)n2)c1,-0.305
6,COc1ccc(S(=O)(=O)N/N=C/c2ccc(OCCN3CCOCC3)c(OC)c2)cc1,1.42
7,COc1ccc(C(C(=O)NC2CCCCC2)N(Cc2ccco2)C(=O)CNC(=O)c2ccco2)cc1 (centres unmarked),3.89
8,O=C1Nc2ccc([N+](=O)[O-])cc2OC1CCN1CCN(Cc2ccccc2)CC1 (centres unmarked),-22.8
9,CC(C)COCC(O)CCC(=O)NNC(=S)Nc1ccccc1 (centres unmarked),2.99
10,COc1ccc2c(c1)CCc1c(C(=O)NCc3cccnc3)noc1-2,2.22
11,CCCOP(=O)(O)c1c([N+](=O)[O-])cc(C(F)(F)F)cc1[N+](=O)[O-].Cc1ccc(N)cc1,0.849
12,COc1ccccc1Nc1ccc2nonc2c1[N+](=O)[O-],6.71
13,CC(C)(C)NC(=O)C(c1ccncc1)N(C(=O)Cn1nnc(-c2cccs2)n1)C1CCCCC1 (centres unmarked),-19.6
14,CCCCNS(=O)(=O)c1ccc(NC(=O)Cc2ccc(OC)cc2)cc1,4.9
15,O=C(CCn1c(=O)sc2ccccc21)NCc1ccccc1,1.73
16,COc1cc(/C=C/c2sc3ccccc3[n+]2CCCS(=O)(=O)[O-])ccc1O,-1.39
17,N#Cc1ccc(C23CC4(C2)[C@H](CN(CC2CCCCC2)[C@@H]4c2ccccc2)C3c2ccc(Cl)nc2)cc1 (some centres unmarked),-26.4
18,COc1cccc(/C=C/C(=O)N2CCN(c3ccccn3)CC2)c1,-18.6
19,Cc1cccc(N2CC(C(=O)Nc3ccc4c(c3)OCCO4)CC2=O)c1C (centres unmarked),16.4
20,O=C(CCCCCN1C(=O)c2cccc3cccc(c23)C1=O)NCCO,-11.9
